Test results from US20250313820A1, “PEPTIDES WITH MULTIVALENT EFFECTS” (In2Cure AB, priority 2021, published 2025).
Not every detail of the peptide structures is certain; ends, links or a residue may be inferred. Where a SMILES comes first, the peptide text is derived from it. Bridges are numbered along the chain shown (N, C = ends). [ ]: non-standard residue; d: D form. S5 = C=CCCC[C@](C)(N)C(=O)O

What was measured:
NF-κB activation = assay: Mouse inflammation model, NF-κB reporter mice (IVIS); assay type: in vivo, BALB/c tg(NF-κB-RE-Luc)-Xen reporter mice
[1] = tested on: release of TNF-α in LPS stimulated blood; assay: Whole blood assay with cytokine ELISA: TNF-α; assay type: cell-based; conditions: 25% human blood, 100 ng mL^−1 E. coli LPS, 24 h; read-out: Anti-inflammatory activity: Peptide concentration that reduces by 50% the release of TNF-α in LPS stimulated blood
Protocol: Fresh venous blood was collected in the presence of lepirudin (50 μg mL^−1) from healthy donors. […] After 24 h incubation at 37° C. in 5% CO2, the plate was centrifuged for 5 min at 1000 g and then the supernatants were collected and stored at −80° C. before analysis. The experiment was performed at least 4 times by using blood from different donors each time. To evaluate the healing properties of the peptides, the blood was stimulated with 100 ng mL^−1 LPS and after 30 min incubation at 37° C. was treated with increasing doses of four peptides. […] Then the blood was stimulated with 100 ng mL^−1 of LPS.
(§1) Plasma obtained from blood experiment was used to evaluate cytokine release. Human inflammation DuoSet® ELISA Kit (R&D Systems) specific for TNF-α and IL-1β was used according to the manufacturer's instructions. Absorbance was measured at a wavelength of 450 nm. Data shown are mean values±SEM obtained from at least four independent experiments all performed in duplicate.
For each experiment blood from a different donor was used.
as §1, with “experiments” for “experiment”, “from” for “from at least”, “experiments. For 2sGKY25, the data shown are mean values±SEM obtained from two independent experiments.” for “experiments all performed in duplicate.”
as §1, with “experiments” for “experiment”, “from” for “from at least”, “experiments.” for “experiments all performed in duplicate.”

## CC[C@H](C)[C@H](NC(=O)[C@H](Cc1c[nH]c2ccccc12)NC(=O)[C@H](CCCCN)NC(=O)[C@H](CCCCN)NC(=O)[C@H](CC(C)C)NC(=O)[C@H](CCCNC(=N)N)NC(=O)[C@H](Cc1ccccc1)NC(=O)[C@@H](NC(=O)[C@@H](N)Cc1c[nH]cn1)C(C)C)C(=O)N[C@@H](CCC(N)=O)C(=O)N[C@@H](CCCCN)C(=O)N[C@H](C(=O)N[C@H](C(=O)N[C@@H](CC(=O)O)C(=O)N[C@@H](CCC(N)=O)C(=O)N[C@@H](Cc1ccccc1)C(=O)NCC(=O)N[C@@H](CCC(=O)O)C(=O)O)[C@@H](C)CC)C(C)C [HVF18, reference compound] (H-HVFRLKKWIQKVIDQFGE-OH)
NF-κB activation; 50 μg peptide s.c. with 25 μg LPS
  suppression of LPS-induced local inflammation (NF-κB bioluminescence): not effective
NF-κB activation; s.c. with 25 μg LPS
  amount of peptide required for anti-inflammatory activity: 200 µg
[1]
  IC50: > 10000 nM

## CC[C@H](C)[C@H](NC(=O)[C@H](Cc1c[nH]c2ccccc12)NC(=O)[C@H](CCCCN)NC(=O)[C@H](CCCCN)NC(=O)[C@H](CC(C)C)NC(=O)[C@H](CCCNC(=N)N)NC(=O)[C@H](Cc1ccccc1)NC(=O)[C@@H](NC(=O)[C@H](CCCCN)NC(=O)[C@H](CCCCN)NC(=O)[C@H](CCCCN)NC(=O)[C@@H](N)CCCCN)C(C)C)C(=O)N[C@@]1(C)CCCC=CCCC[C@@](C)(C(=O)N[C@@H](CCC(N)=O)C(=O)N[C@@H](Cc2ccccc2)C(=O)NCC(=O)N[C@@H](CCC(=O)O)C(=O)O)NC(=O)[C@H]([C@@H](C)CC)NC(=O)[C@H](C(C)C)NC(=O)[C@H](CCCCN)NC1=O [sKKKKVF18, KKKKVFRLKKWIX1KVIX2QFGE] (H-KKKKVFRLKKWI[S5]KVI[S5]QFGE-OH; staple 13-17)
[1]
  IC50: 1900 ± 500 nM

## CC[C@H](C)[C@H](NC(=O)[C@H](Cc1c[nH]c2ccccc12)NC(=O)[C@H](CCCCN)NC(=O)[C@H](CCCCN)NC(=O)[C@H](CC(C)C)NC(=O)[C@H](CCCNC(=N)N)NC(=O)[C@H](Cc1ccccc1)NC(=O)[C@@H](NC(=O)[C@H](CCCCN)NC(=O)[C@H](CCCCN)NC(=O)[C@@H](N)CCCCN)C(C)C)C(=O)N[C@@]1(C)CCCC=CCCC[C@@](C)(C(=O)N[C@@H](CCC(N)=O)C(=O)N[C@@H](Cc2ccccc2)C(=O)NCC(=O)N[C@@H](CCC(=O)O)C(=O)O)NC(=O)[C@H]([C@@H](C)CC)NC(=O)[C@H](C(C)C)NC(=O)[C@H](CCCCN)NC1=O [sKKKVF18, KKKVFRLKKWIX1KVIX2QFGE] (H-KKKVFRLKKWI[S5]KVI[S5]QFGE-OH; staple 12-16)
[1]
  IC50: 2300 ± 600 nM

## CC[C@H](C)[C@H](NC(=O)[C@H](Cc1c[nH]c2ccccc12)NC(=O)[C@H](CCCCN)NC(=O)[C@H](CCCCN)NC(=O)[C@H](CC(C)C)NC(=O)[C@H](CCCNC(=N)N)NC(=O)[C@H](Cc1ccccc1)NC(=O)[C@@H](NC(=O)[C@H](CCCCN)NC(=O)[C@@H](N)CCCCN)C(C)C)C(=O)N[C@@]1(C)CCCC=CCCC[C@@](C)(C(=O)N[C@@H](CCC(N)=O)C(=O)N[C@@H](Cc2ccccc2)C(=O)NCC(=O)N[C@@H](CCC(=O)O)C(=O)O)NC(=O)[C@H]([C@@H](C)CC)NC(=O)[C@H](C(C)C)NC(=O)[C@H](CCCCN)NC1=O [sKKVF18, KKVFRLKKWIX1KVIX2QFGE] (H-KKVFRLKKWI[S5]KVI[S5]QFGE-OH; staple 11-15)
[1]
  IC50: 1000 ± 300 nM

## CC[C@H](C)[C@H](NC(=O)[C@H](Cc1c[nH]c2ccccc12)NC(=O)[C@H](CCCCN)NC(=O)[C@H](CCCCN)NC(=O)[C@H](CC(C)C)NC(=O)[C@H](CCCNC(=N)N)NC(=O)[C@H](Cc1ccccc1)NC(=O)[C@@H](NC(=O)[C@@H](N)CCCCN)C(C)C)C(=O)N[C@@]1(C)CCCC=CCCC[C@@](C)(C(=O)N[C@@H](CCC(N)=O)C(=O)N[C@@H](Cc2ccccc2)C(=O)NCC(=O)N[C@@H](CCC(=O)O)C(=O)O)NC(=O)[C@H]([C@@H](C)CC)NC(=O)[C@H](C(C)C)NC(=O)[C@H](CCCCN)NC1=O [sKVF18, KVFRLKKWIXKVIXQFGE] (H-KVFRLKKWI[S5]KVI[S5]QFGE-OH; staple 10-14)
[1]
  IC50: 1900 ± 600 nM

## CC[C@H](C)[C@H](NC(=O)[C@H](Cc1c[nH]c2ccccc12)NC(=O)[C@H](CCCCN)NC(=O)[C@H](CCCCN)NC(=O)[C@H](CC(C)C)NC(=O)[C@H](CCCNC(=N)N)NC(=O)[C@H](Cc1ccccc1)NC(=O)[C@@H](NC(=O)[C@H](CCCNC(=N)N)NC(=O)[C@H](CCCNC(=N)N)NC(=O)[C@H](CCCNC(=N)N)NC(=O)[C@@H](N)CCCNC(=N)N)C(C)C)C(=O)N[C@@]1(C)CCCC=CCCC[C@@](C)(C(=O)N[C@@H](CCC(N)=O)C(=O)N[C@@H](Cc2ccccc2)C(=O)NCC(=O)N[C@@H](CCC(=O)O)C(=O)O)NC(=O)[C@H]([C@@H](C)CC)NC(=O)[C@H](C(C)C)NC(=O)[C@H](CCCCN)NC1=O [sRRRRVF18, RRRRVFRLKKWIX1KVIX2QFGE] (H-RRRRVFRLKKWI[S5]KVI[S5]QFGE-OH; staple 13-17)
[1]
  IC50: 2300 ± 900 nM

## CC[C@H](C)[C@H](NC(=O)[C@H](Cc1c[nH]c2ccccc12)NC(=O)[C@H](CCCCN)NC(=O)[C@H](CCCCN)NC(=O)[C@H](CC(C)C)NC(=O)[C@H](CCCNC(=N)N)NC(=O)[C@H](Cc1ccccc1)NC(=O)[C@@H](NC(=O)[C@H](CCCNC(=N)N)NC(=O)[C@H](CCCNC(=N)N)NC(=O)[C@@H](N)CCCNC(=N)N)C(C)C)C(=O)N[C@@]1(C)CCCC=CCCC[C@@](C)(C(=O)N[C@@H](CCC(N)=O)C(=O)N[C@@H](Cc2ccccc2)C(=O)NCC(=O)N[C@@H](CCC(=O)O)C(=O)O)NC(=O)[C@H]([C@@H](C)CC)NC(=O)[C@H](C(C)C)NC(=O)[C@H](CCCCN)NC1=O [sRRRVF18, RRRVFRLKKWIX1KVIX2QFGE] (H-RRRVFRLKKWI[S5]KVI[S5]QFGE-OH; staple 12-16)
[1]
  IC50: 2600 ± 700 nM

## CC[C@H](C)[C@H](NC(=O)[C@H](Cc1c[nH]c2ccccc12)NC(=O)[C@H](CCCCN)NC(=O)[C@H](CCCCN)NC(=O)[C@H](CC(C)C)NC(=O)[C@H](CCCNC(=N)N)NC(=O)[C@H](Cc1ccccc1)NC(=O)[C@@H](NC(=O)[C@H](CCCNC(=N)N)NC(=O)[C@@H](N)CCCNC(=N)N)C(C)C)C(=O)N[C@@]1(C)CCCC=CCCC[C@@](C)(C(=O)N[C@@H](CCC(N)=O)C(=O)N[C@@H](Cc2ccccc2)C(=O)NCC(=O)N[C@@H](CCC(=O)O)C(=O)O)NC(=O)[C@H]([C@@H](C)CC)NC(=O)[C@H](C(C)C)NC(=O)[C@H](CCCCN)NC1=O [sRRVF18, RRVFRLKKWIX1KVIX2QFGE] (H-RRVFRLKKWI[S5]KVI[S5]QFGE-OH; staple 11-15)
[1]
  IC50: 1600 ± 800 nM

## CC[C@H](C)[C@H](NC(=O)[C@H](Cc1c[nH]c2ccccc12)NC(=O)[C@H](CCCCN)NC(=O)[C@H](CCCCN)NC(=O)[C@H](CC(C)C)NC(=O)[C@H](CCCNC(=N)N)NC(=O)[C@H](Cc1ccccc1)NC(=O)[C@@H](NC(=O)[C@@H](N)CCCNC(=N)N)C(C)C)C(=O)N[C@@]1(C)CCCC=CCCC[C@@](C)(C(=O)N[C@@H](CCC(N)=O)C(=O)N[C@@H](Cc2ccccc2)C(=O)NCC(=O)N[C@@H](CCC(=O)O)C(=O)O)NC(=O)[C@H]([C@@H](C)CC)NC(=O)[C@H](C(C)C)NC(=O)[C@H](CCCCN)NC1=O [sRVF18, RVFRLKKWIXKVIXQFGE] (H-RVFRLKKWI[S5]KVI[S5]QFGE-OH; staple 10-14)
[1]
  IC50: 2300 ± 600 nM
